Laboratory results as given in PubChem BioAssay AID686978 (National Center for Advancing Translational Sciences (NCATS), 2013).
In all, about 420,000 compounds went through this assay and about 64,000 (15%) were called active. Inconclusive results, whose numbers are uncertain, are shown with a selection of clear calls. Calls follow the shape of the dose curve; as a rule, active = well fitted inhibition curve with a large enough effect; inconclusive = small, poorly fitted or top-dose-only effect; inactive = flat fitted curve, though single readings scatter. No potency is given beside an inconclusive call; the fits are too rough.

Experiment: qHTS for Inhibitors of human tyrosyl-DNA phosphodiesterase 1 (TDP1): qHTS in cells in absence of CPT; also: nearly all actives have a fitted effect of over 55% in size
Details: DT40 Tdp1-/- hTDP1 cells, no CPT, ATP luminescence, 48 h; series mostly up to 46.2 µM
Summary of the method: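 Chicken DT40 Tdp1-/- cells complemented with human TDP1, screened without camptothecin (DMSO vehicle only), 400 cells/well. Compounds pin-transferred, cells incubated at 37 °C for at least 48 hr. Growth read as ATP-dependent luminescence (CellTiter-Glo, 30 min at RT).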
Potency is read from the fitted curve at half-maximal effect; tags tell the direction and shape of the fitted curve.

| Structure (SMILES) | Potency |
| --- | --- |
| Cc1ccccc1CN(C)Cc1cc(=O)oc2c(C)c(C)ccc12 | inconclusive [inhibitor, single point] |
| O=C(NCCC(=O)N(CCc1ccccc1)Cc1ccccc1)c1ccc([N+](=O)[O-])cc1 | active: 23.1 µM |
| CCOc1ccccc1NC(=O)C(NCCc1ccc(OC)cc1)c1ccccc1 (centres undefined) | inconclusive [inhibitor, single point] |
| CCc1cccc(C)c1NC(=O)Cn1cc2c(n1)CCCCC2 | inconclusive [inhibitor, single point] |
| CCn1c(C(=O)N2CCC(C(=O)N3CCN(c4ccccn4)CC3)CC2)cc2sccc21 | active: 25.9 µM |
| CCCC(=O)N/C(N)=N/c1nc(C)c2ccccc2n1 | active: 16.4 µM |
| O=C(c1ccccc1Cc1ccccc1)N1CCN(S(=O)(=O)c2ccccc2[N+](=O)[O-])CC1 | inconclusive [inhibitor, single point] |
| CCC(C)NC(=O)CSc1nc(-c2ccc(F)cc2)cc(C(F)(F)F)n1 (centres undefined) | inconclusive [inhibitor, full curve, poor fit] |
| CCCCc1oc2c(c(=O)c1C)C(=O)CC(c1ccccc1)C2 (centres undefined) | inconclusive [inhibitor, single point] |
| NC(=O)c1cccc(-c2cnc(N)c(C(=O)c3cccnc3)n2)c1 | active: 9.2 µM |
| COc1ccc(N(CC(=O)NCCSCc2ccc(Cl)cc2)S(C)(=O)=O)cc1Cl | inconclusive [inhibitor, single point] |
| COC(=O)c1cc(N2CCNCC2)nc2ccccc12 | inconclusive [inhibitor, single point] |
| O=CN1CCN(c2ncnc3c2nnn3Cc2c(F)cccc2Cl)CC1 | inactive |
| Cc1ccc(CNC(=O)c2cc(=O)c3cc(C)cc(C)c3o2)cc1 | inconclusive [inhibitor, single point] |
| CCOC(=O)N1CCN(Cc2nc(N)nc(Nc3ccc(C)cc3)n2)CC1 | inactive |
| COc1cc(CCC(C)NCc2ccccc2)ccc1O (centres undefined) | inactive |
| CC(=O)N1CCN(c2csc3ccc(Br)cc3c2=O)CC1 | inconclusive [inhibitor, single point] |
| O=[N+]([O-])c1ccc(/C=N/Nc2cc(Cl)nc(-c3ccccc3)n2)cc1 | inconclusive [inhibitor, partial curve] |
| O=C(CNC(=O)C1COc2ccccc2O1)N/N=C/c1ccc([N+](=O)[O-])cc1 (centres undefined) | inconclusive [inhibitor, single point] |
